Source: the supplement of paper PMC4166925
± gives the standard deviation of the averaged measurements. In all, about 33,000 sequences were measured (“E-score (dimensionless, -0.5 to 0.5)”: median about -0.049, highest 2% from about 0.37 on). The list shows a part of the results.

System: T1, PmTbr T-box DNA-binding domain (GST fusion)
T1 sequence: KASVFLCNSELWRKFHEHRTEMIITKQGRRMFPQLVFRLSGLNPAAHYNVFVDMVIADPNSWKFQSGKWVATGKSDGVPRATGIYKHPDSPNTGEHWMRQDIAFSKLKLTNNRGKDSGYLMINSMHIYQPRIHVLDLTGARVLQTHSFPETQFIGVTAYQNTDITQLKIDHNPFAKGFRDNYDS
Experiment: PBM E-score of 8-mer (E-score (dimensionless, -0.5 to 0.5)); Tbr is Tbrain of the sea star Patiria miniata (Pm) or the sea urchin Strongylocentrotus purpuratus (Sp); higher = stronger binding preference; most listed sequences are background and not binding sites
Conditions: the construct has about 5 more residues each side
How it was run: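 Expression of GST-fused Tbr T-box DNA-binding domains, each holding the full T-box plus roughly five flanking residues, was carried out in BL21 E. coli at 20 °C, with purification by glutathione affinity chromatography. Universal Agilent arrays made double-stranded by primer extension were incubated with the protein at 200 nM in PBS (pH 7.5), then scanned and quantified. All ungapped 8-mers were scored from probe intensities, and each received an enrichment E-score from the Universal PBM Analysis Suite, averaged over duplicate arrays.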

| Sequence | PBM E-score of 8-mer |
| --- | --- |
| GGGTCCAA | -0.173 ± 0.039 |
| ATCATAAA | -0.0659 ± 0.032 |
| GGATGGAA | -0.237 ± 0.027 |
| AATGGCCT | -0.0758 ± 0.017 |
| ATCAGCAG | 0.0234 ± 0.014 |
| ACAGCGTC | 0.0172 ± 0.035 |
| CACTGGAG | -0.133 ± 0.0021 |
| AGGAGCCT | -0.292 ± 0.047 |
| ACATCCGG | -0.0734 ± 0.061 |
| GCTTGGGA | -0.208 ± 0.064 |
| CGGACGCC | 0.06 ± 0.061 |
| GGTTCGCA | 0.334 ± 0.02 |
| CTGGCTTA | -0.275 ± 0.025 |
| AATTTTAA | -0.0211 ± 0.19 |
| AATGAGTA | -0.115 ± 0.038 |
| GCGGTGCA | 0.0732 ± 0.012 |
| ATAGCCAA | -0.2 ± 0.05 |
| ATTAAATG | -0.0498 ± 0.087 |
| CTGTACCC | -0.141 ± 0.005 |
| GGTAAAGA | -0.155 ± 0.043 |
| CGTCTGAA | -0.182 ± 0.073 |
| AAATGCCC | -0.194 ± 0.043 |

| Sequence | PBM E-score of 8-mer |
| --- | --- |
| ACCTTCCG | 0.244 ± 0.024 |
| ACGATTTG | 0.146 ± 0.052 |
| CTATTAGC | 0.0714 ± 0.036 |
| AACTGGGT | 0.0102 ± 0.014 |
| ATCATTTC | -0.124 ± 0.049 |
| ATACAACG | -0.0324 ± 0.0032 |
| AGTACAAG | -0.179 ± 0.081 |
| AACACCAA | 0.393 ± 0.011 |
| ACAGCACG | 0.0921 ± 0.053 |
| CGCGTCGA | 0.225 ± 0.0088 |
| AAAGGCAC | -0.0325 ± 0.013 |
| ACTACTCA | 0.0417 ± 0.047 |
| ACGTACGT | 0.296 ± 0.016 |
| CTAAAACC | -0.186 ± 0.088 |
| CGGCCTAG | -0.0171 ± 0.036 |
| ACCGAGCG | -0.171 ± 0.018 |
| ACATACGA | -0.0429 ± 0.024 |
| AGTACTGG | -0.272 ± 0.0055 |
| ACATCGTA | -0.0767 ± 0.038 |
| ATTAAAGA | -0.221 ± 0.057 |
| ATGTTTGC | -0.0719 ± 0.089 |
| TCGTTCCA | -0.0874 ± 0.035 |

| Sequence | PBM E-score of 8-mer |
| --- | --- |
| GTGATGGA | 0.219 ± 0.031 |
| TCCGTGCA | -0.0476 ± 0.039 |
| AGGCCTGG | -0.293 ± 0.041 |
| ACACAGCG | 0.157 ± 0.028 |
| TAGTCCAA | -0.327 ± 0.018 |
| CGTTCCAC | 0.036 ± 0.032 |
| CAACCTTA | -0.245 ± 0.026 |
| ATAGACTC | -0.273 ± 0.051 |
| CTTAATTA | -0.165 ± 0.0089 |
| CAGACTAC | -0.244 ± 0.019 |
| CAAGCCAA | -0.169 ± 0.02 |
| GAGTAGCA | 0.135 ± 0.0046 |
| AATGATCA | -0.177 ± 0.009 |
| GCATTCGC | 0.204 ± 0.055 |
| TGAGTCAA | -0.155 ± 0.011 |
| AGCCAGCA | -0.114 ± 0.0039 |
| CTACTTTA | 0.0726 ± 0.045 |
| CTCGTGTC | 0.125 ± 0.043 |
| AACGGTAC | -0.0723 ± 0.022 |
| GCCTCAGC | 0.0495 ± 0.022 |
| AATTATGC | -0.126 ± 0.071 |
| CCGCCCGG | -0.266 ± 0.02 |

| Sequence | PBM E-score of 8-mer |
| --- | --- |
| GAGCAGTA | -0.00165 ± 0.021 |
| CATCTATA | -0.189 ± 0.009 |
| CTCTGAAA | -0.198 ± 0.063 |
| ATTAAGCC | -0.166 ± 0.011 |
| AGCGACCA | -0.0413 ± 0.019 |
| ACTAGGAA | -0.1977 ± 0.001 |
| CGTTAGTC | -0.04 ± 0.0098 |
| ATCTCCCG | -0.0701 ± 0.054 |
| AATTAGGT | 0.152 ± 0.083 |
| CGGACGTA | -0.224 ± 0.018 |
| CCGCCGAC | 0.09 ± 0.0017 |
| ATCGAATC | -0.209 ± 0.051 |
| GCAAATGC | -0.0465 ± 0.014 |
| ATGGCTAA | -0.0831 ± 0.062 |
| ATAGCTAA | -0.273 ± 0.053 |
| AAACGCGG | -0.222 ± 0.044 |
| GTTCACGA | 0.224 ± 0.037 |
| AAGATTCT | -0.252 ± 0.084 |
| GGATGTAC | -0.201 ± 0.079 |
| CAGTTCTA | -0.0552 ± 0.026 |
